Measurements: article PMC6332033, “Synthesis, Crystal Structure, Absolute Configuration and Antitumor Activity of the Enantiomers of 5-Bromo-2-chloro-N-(1-phenylethyl)pyridine-3-sulfonamide” (Molecules, 2015)

Columns and labels:
PI3Kα kinase = PI3Kα kinase (Homo sapiens, UniProt P42336); experiment: PI3Kα kinase assay (HTRF); format: biochemical
Description: The PI3Kα kinase activities were evaluated using homogeneous time-resolved fluorescence (HTRF) assays as previously reported protocol. Briefly, 20 μg/mL poly (Glu, Tyr) 4:1 (Sigma-Aldrich, St. Louis, MO, USA) was preloaded as a substrate in 384-well plates. Then 50 μL of 10 mM ATP (Invitrogen, Waltham, MA, USA) solution diluted in kinase reaction buffer (50 mM HEPES, pH 7.0, 1 mM DTT, 1 mM MgCl2, 1 mM MnCl2, and 0.1% NaN3) was added to each well. Various concentrations of compounds were diluted in 10 μL of 1% DMSO (v/v), with blank DMSO solution as the negative control. The kinase reaction was initiated by the addition of purified tyrosine kinase proteins diluted in 39 μL of kinase reaction buffer solution. The incubation time for the reactions was 30 min at 25 °C and the reactions were stopped by the addition of 5 μL of Streptavidin-XL665 and 5 μL Tk Antibody Cryptate working solution to all of wells. The plate was read using Envision (Perkin Elmer, Waltham, MA, USA) at 320 nm and 615 nm. IC50 values were calculated from the inhibition curves.

[1] = test system: HepG2 (human hepatocellular carcinoma); experiment: MTT cytotoxicity / anti-proliferative assay in HepG2; details: read-out: IC50 HepG2 cytotoxicity, 72 h, average of three determinations
PI3Kα = details: cited from earlier work
PI4K IIIα = test system: PI4K IIIα; parameters: method as in PMID 23944386; details: cited from earlier work; for pIC50 PI4K IIIα: pIC50 = −log IC50

Sequence of UniProt P42336 (P42336 whole entry): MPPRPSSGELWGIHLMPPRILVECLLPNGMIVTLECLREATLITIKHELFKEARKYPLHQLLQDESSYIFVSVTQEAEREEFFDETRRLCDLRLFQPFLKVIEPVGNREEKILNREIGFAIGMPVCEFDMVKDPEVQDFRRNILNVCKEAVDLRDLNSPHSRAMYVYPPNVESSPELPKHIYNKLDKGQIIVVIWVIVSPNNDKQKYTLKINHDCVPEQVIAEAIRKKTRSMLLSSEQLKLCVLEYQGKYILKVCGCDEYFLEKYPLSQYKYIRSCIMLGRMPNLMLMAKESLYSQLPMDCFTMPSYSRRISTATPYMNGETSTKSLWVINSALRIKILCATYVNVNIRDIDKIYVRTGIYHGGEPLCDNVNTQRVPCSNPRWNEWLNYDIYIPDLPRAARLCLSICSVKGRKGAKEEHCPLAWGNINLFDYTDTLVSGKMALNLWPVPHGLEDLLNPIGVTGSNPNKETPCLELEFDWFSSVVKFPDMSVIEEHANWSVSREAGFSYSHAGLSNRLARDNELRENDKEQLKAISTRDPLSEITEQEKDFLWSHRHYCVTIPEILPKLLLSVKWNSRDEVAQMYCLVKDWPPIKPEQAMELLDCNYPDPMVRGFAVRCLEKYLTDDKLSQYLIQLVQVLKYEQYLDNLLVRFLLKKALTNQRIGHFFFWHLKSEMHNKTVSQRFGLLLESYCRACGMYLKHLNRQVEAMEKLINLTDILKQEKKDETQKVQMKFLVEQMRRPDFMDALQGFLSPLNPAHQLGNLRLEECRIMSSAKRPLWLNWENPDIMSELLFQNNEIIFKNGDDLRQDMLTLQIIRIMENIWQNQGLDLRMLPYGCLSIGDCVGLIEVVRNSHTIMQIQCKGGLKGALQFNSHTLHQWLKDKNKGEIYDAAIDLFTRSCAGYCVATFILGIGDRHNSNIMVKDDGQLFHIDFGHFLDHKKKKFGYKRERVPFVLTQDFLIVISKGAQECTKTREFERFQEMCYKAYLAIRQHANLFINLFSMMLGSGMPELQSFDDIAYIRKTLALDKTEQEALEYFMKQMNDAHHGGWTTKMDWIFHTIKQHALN
Sequence of UniProt P42336 (P27986 whole entry partner): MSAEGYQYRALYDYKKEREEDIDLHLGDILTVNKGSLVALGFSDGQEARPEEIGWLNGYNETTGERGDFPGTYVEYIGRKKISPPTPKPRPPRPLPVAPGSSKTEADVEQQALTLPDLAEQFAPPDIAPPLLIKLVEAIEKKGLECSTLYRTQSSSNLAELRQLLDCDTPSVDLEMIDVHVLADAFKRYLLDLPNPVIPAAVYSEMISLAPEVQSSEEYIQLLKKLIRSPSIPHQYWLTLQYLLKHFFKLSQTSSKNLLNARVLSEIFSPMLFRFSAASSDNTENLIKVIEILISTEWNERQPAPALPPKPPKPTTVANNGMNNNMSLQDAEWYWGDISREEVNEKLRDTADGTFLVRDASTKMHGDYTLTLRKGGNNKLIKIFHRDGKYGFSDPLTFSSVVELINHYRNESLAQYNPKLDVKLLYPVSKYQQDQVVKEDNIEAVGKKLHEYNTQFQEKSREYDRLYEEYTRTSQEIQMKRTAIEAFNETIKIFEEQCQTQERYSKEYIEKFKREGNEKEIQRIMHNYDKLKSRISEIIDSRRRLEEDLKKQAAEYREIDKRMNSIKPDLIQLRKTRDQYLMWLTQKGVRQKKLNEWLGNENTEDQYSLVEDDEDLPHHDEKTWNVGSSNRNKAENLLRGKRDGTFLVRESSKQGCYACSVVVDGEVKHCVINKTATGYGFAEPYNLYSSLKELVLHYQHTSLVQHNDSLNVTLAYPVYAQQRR

Structure (SMILES)	IC50 [1] [nM]	IC50 (PI3Kα) [nM]	also measured
C[C@@H](NS(=O)(=O)c1cc(Br)cnc1Cl)c1ccccc1 [Compound 10a, (R)-5-Bromo-2-chloro-N-(1-phenylethyl)pyridine-3-sulfonamide]	9260 ± 890		melting point: 173.4 to 174.9 °C; IC50 (PI3Kα kinase): 1080 nM
CCNc1cnc2ccc(-c3cnc(N)c(S(=O)(=O)N(C)C)c3)cc2n1 [Compound 4]		8	
O=S(=O)(Nc1ccc(F)cc1F)c1cncc(-c2ccc3nccc(-c4ccncc4)c3c2)c1 [Compound 1]		1	
NC(=O)Cn1cc(-c2ccnc3ccc(-c4cncc(S(=O)(=O)Nc5ccc(F)cc5F)c4)cc23)cn1 [Compound 3]		7.9	
COc1ncc(-c2ccc3nc(N)n(-c4ccccc4C(F)(F)F)c(=O)c3c2)cc1S(=O)(=O)Nc1ccc(F)cc1F (single isomer, unassigned) [Compound 7]			pIC50 PI4K IIIα (PI4K IIIα): 6.9
Nc1ncc(-c2ccc3nccc(-c4ccncc4)c3c2)cc1S(N)(=O)=O [Compound 2]		10	
COc1ncc(-c2ccc3nc(N)n(-c4ccccc4C(F)(F)F)c(=O)c3c2)cc1S(=O)(=O)Nc1ccc(F)cc1F (single isomer, unassigned) [Compound 6]			fold higher PI4K IIIα potency than compound 7 (PI4K IIIα; enantiomer comparison 6 vs 7): 25 ×; pIC50 PI4K IIIα (PI4K IIIα): 8.3
C[C@H](NS(=O)(=O)c1cc(Br)cnc1Cl)c1ccccc1 [Compound 10b, (S)-5-Bromo-2-chloro-N-(1-phenylethyl)pyridine-3-sulfonamide]	24200 ± 2340		melting point: 174.5 to 175.5 °C; IC50 (PI3Kα kinase): 2690 nM
CS(=O)(=O)N1CCN(Cc2cc3nc(-c4cccc5[nH]ncc45)nc(N4CCOCC4)c3s2)CC1 [GDC-0941]	1230 ± 170		
